Consider 30 compounds from PubChem BioAssay AID1745853 (National Center for Advancing Translational Sciences (NCATS), 2022).

The other results are listed elsewhere or left out. Shown are side measurements of this screen, not its main read-out; they come without a call.

Common to all, as to experiment: Primary Screen for Target Class Profiling of Small Molecule Inhibitors of Methyltransferases
The target of experiment [1] is Guanidinoacetate N-methyltransferase (Homo sapiens) (UniProt Q14353). The conditions noted are these: purified enzyme, MTase-Glo SAH luminescence; measured here: GAMT inhibition; at 40 µM; stronger effect = lower value. In a few lines: (§1)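 Each enzyme was assayed with SAM and its substrate. SAH formation detected by MTase-Glo luminescence; single-point 40 uM screen[…].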

Experiment [2] deals with Nicotinamide N-methyltransferase (Homo sapiens) (UniProt P40261). The conditions noted are these: purified enzyme, MTase-Glo SAH luminescence; measured here: NNMT inhibition; at 40 µM; stronger effect = lower value. The method in brief:
as §1

Experiment [3] concerns the target Phenylethanolamine N-methyltransferase (Homo sapiens) (UniProt P11086). The conditions noted are these: purified enzyme, MTase-Glo SAH luminescence; measured here: PNMT inhibition; at 40 µM; stronger effect = lower value. The method in brief: as §1
Experiment [4] addresses Glycine N-methyltransferase (Homo sapiens) (UniProt Q14749). The conditions noted are these: purified enzyme, MTase-Glo SAH luminescence; measured here: GNMT inhibition; at 40 µM; stronger effect = lower value. The method in brief: as §1
The target in experiment [5] is Histamine N-methyltransferase (Homo sapiens) (UniProt P50135). The conditions noted are these: purified enzyme, MTase-Glo SAH luminescence; measured here: HNMT inhibition; at 40 µM; stronger effect = lower value. In a few lines: as §1
% is scaled to controls: 0 for no effect and ±100 for the full control effect.

In the case of `Cc1ccc(NS(=O)(=O)c2cc3c(cc2NC(C)CO)NC(=O)CC3)cc1C` (stereo not given), the activity change, negative = inhibition in experiment [1] is 9.77%; in experiment [2], -7.1%; in experiment [3] it was -5.6%.

Consider `CCOc1ccc(N(C(=O)c2ccc(C)cc2)S(=O)(=O)c2ccc3c(c2)n(C)c(=O)n3C)cc1`, for which the activity change, negative = inhibition in experiment [4] was -5.88%; in experiment [1], 0%; in experiment [5], -0.984%; in experiment [2], -10.5%; in experiment [3], -2.45%.

Consider `COCc1nc2c([nH]1)c(=O)n(C)c(=O)n2CC(C)C`, for which the activity change, negative = inhibition was 2.42% in experiment [4]; 7.8% in experiment [1]; 3.6% in experiment [5]; -6.79% in experiment [2]; 5.35% in experiment [3].

Consider `CCC(C)NC(=O)c1ccc2c(=O)n(C(C)C)c3n[nH]c(=O)n3c2c1` (stereo not given), for which the activity change, negative = inhibition in experiment [4] stood at 0.571%; in experiment [1], 0.803%; in experiment [5], 6.9%; in experiment [2], 7.07%; in experiment [3], 1.61%.

Consider `C=C1C(=O)O[C@H]2C[C@@H](C)[C@@H]3CCC(=O)[C@@]3(C)C[C@H]12`, for which the activity change, negative = inhibition was -5.92% in experiment [4]; -5.51% in experiment [1]; 3.64% in experiment [5]; -12.4% in experiment [2]; -8.01% in experiment [3].

With `Cc1[nH]c2ccccc2c1C1=C(NCCc2ccc(F)cc2)C(=O)N(C)C1=O`, the activity change, negative = inhibition in experiment [4] was -2.61%; in experiment [1], -1.67%; in experiment [5] it was 3.21%; in experiment [2], -30.4%; in experiment [3] it was 0.291%.

Turning to `Clc1ccc(-c2cnc([C@@H]3COCCN3Cc3ccccc3)[nH]2)s1`, the activity change, negative = inhibition is -10.7% in experiment [4]; -4.21% in experiment [1]; -12.6% in experiment [5]; -16.2% in experiment [2]; -10.7% in experiment [3].

`Nc1ccc(/C=C/C(=O)NCc2cc3cc(-c4ccc(C(=O)N5CCC(F)(F)CC5)cc4)cc(-c4ccc(F)cc4)c3o2)cn1`: the activity change, negative = inhibition in experiment [4] is -8.31%; in experiment [1], -31.3%; in experiment [5], 0.249%; in experiment [2], -46.7%; in experiment [3] it was -18.1%.

As for `CCCn1c(=O)c2ccc(C(=O)NC(C)CC)cc2n2c(=O)n(CC(N)=O)nc12` (stereo not given), the activity change, negative = inhibition amounted to 2.71% in experiment [4]; 0% in experiment [1]; 7.63% in experiment [5]; 2.87% in experiment [2]; 3.08% in experiment [3].

With `O=C(CCc1nnc2n(Cc3ccccc3Cl)c(=O)c3ccccc3n12)N1CCN(c2ccccc2)CC1`, the activity change, negative = inhibition was -14.4% in experiment [4]; -4.34% in experiment [1]; -2.61% in experiment [5]; -11% in experiment [2]; -6.87% in experiment [3].

As for `O=C1NCC2(CCCN(C(=O)CCc3nc4ccccc4[nH]c3=O)C2)O1` (stereo not given), the activity change, negative = inhibition in experiment [4] was -9.25%; in experiment [1], -9.05%; in experiment [5] it was -2.08%; in experiment [2], -15.7%; in experiment [3] it was -0.351%.

On to `O=C(CCc1nnc2n(Cc3ccccc3Cl)c(=O)c3ccccc3n12)N1CCN(c2ccc(F)cc2)CC1`, for which the activity change, negative = inhibition in experiment [4] is -10.6%; in experiment [1], 1.02%; in experiment [5] it was 1.3%; in experiment [2], -5.77%; in experiment [3], -0.153%.

For `CC1c2ccccc2CN1NC(=O)c1ccc(Cl)c(S(N)(=O)=O)c1` (stereo not given), the activity change, negative = inhibition is 0.557% in experiment [4]; 4.84% in experiment [1]; 5.27% in experiment [5]; -13% in experiment [2]; -1.24% in experiment [3].

Regarding `O=c1ncn(CC2CC2)c2ccc(N3CCC(c4ccccc4)CC3)nc12`, the activity change, negative = inhibition in experiment [4] is -17.2%; in experiment [1], -7.3%; in experiment [5], -14.3%; in experiment [2], -20.7%; in experiment [3] it was -11.2%.

In the case of `CCCCNC(=O)c1ccc2c(=O)nc3c(-c4ccc(Cl)cc4)n[nH]n3c2c1`, the activity change, negative = inhibition in experiment [4] was -12.3%; in experiment [1], 0.871%; in experiment [5] it was -2.05%; in experiment [2], -3.5%; in experiment [3], -3.1%.

As to `Cc1cn2nc(C(=O)Nc3ccc4c(c3)OCCO4)cc2c(N(C)Cc2ccccc2)n1`, the activity change, negative = inhibition in experiment [4] was -9.26%; in experiment [1] it was -1%; in experiment [5], -13%; in experiment [2], -3.73%; in experiment [3], -1.35%.

Take `Cc1ccc(C(=O)Cn2nc3n(CCC(C)C)c(=O)c4ccc(C(=O)NC(C)C)cc4n3c2=O)c(C)c1`: the activity change, negative = inhibition was 6.1% in experiment [4]; 3.77% in experiment [1]; -4.78% in experiment [5]; 3.26% in experiment [2]; 4.47% in experiment [3].

With `C=CCn1c(=O)c2ccc(C(=O)NC(C)CC)cc2n2c(=O)n(CC(=O)NC3CCCC3)nc12` (stereo not given), the activity change, negative = inhibition is -0.259% in experiment [4]; 4.67% in experiment [1]; -1.2% in experiment [5]; -4.21% in experiment [2]; -1.42% in experiment [3].

For the compound `CNC(=O)c1cn2c(n1)CN(C(=O)OCc1ccccc1)CC2`, the activity change, negative = inhibition is -2.65% in experiment [4]; -9.47% in experiment [1]; -1.15% in experiment [5]; -16.3% in experiment [2]; -5.81% in experiment [3].

Regarding `C/C=C/C=C/C(=O)OC1CC/C=C/C(O)C(O)C(CCC)OC1=O` (stereo not given), the activity change, negative = inhibition in experiment [4] is 0%; in experiment [1], -11.2%; in experiment [5], 4.73%; in experiment [2], -23.8%; in experiment [3], -10%.

Consider `COc1ccc(-c2n[nH]n3c2nc(=O)c2ccc(C(=O)NCc4ccc5c(c4)OCO5)cc23)cc1`, for which the activity change, negative = inhibition was -12.2% in experiment [4]; 2.75% in experiment [1]; 0.651% in experiment [5]; 1.71% in experiment [2]; -11.4% in experiment [3].

On to `COc1cccc(CNC(=O)CNC(=O)C2(C)Cn3c(cc4ccccc43)C(=O)N2C)c1` (stereo not given), for which the activity change, negative = inhibition was 4.26% in experiment [4]; 0.715% in experiment [1]; 6.31% in experiment [5]; 13.5% in experiment [2]; 3.25% in experiment [3].

With `CC(C)OCCCn1c(=O)c2ccccc2n2c(SCc3ccccc3F)nnc12`, the activity change, negative = inhibition in experiment [4] is -3.28%; in experiment [1], 1.62%; in experiment [5], 5.15%; in experiment [2], -0.416%; in experiment [3], 2.86%.

In the case of `CC(=O)Nc1nc2c(Oc3cc(-c4ccc(C(F)(F)F)cc4)ncn3)cccc2s1`, the activity change, negative = inhibition in experiment [4] is -8.13%; in experiment [1], -23.2%; in experiment [5], 1.33%; in experiment [2] it was -35.1%; in experiment [3] it was -2.27%.

As to `CS(=O)(=O)N1CCOc2ccc(CCC(=O)N3CCC(C(N)=O)CC3)cc2C1`, the activity change, negative = inhibition was -0.065% in experiment [4]; -3.27% in experiment [1]; 0.351% in experiment [5]; -0.033% in experiment [2]; 0.355% in experiment [3].

For the compound `C/C=C/C[C@@H](C)[C@@H](O)[C@H]1C(=O)N[C@@H](CC)C(=O)N(C)CC(=O)N(C)[C@@H](CC(C)C)C(=O)N[C@@H](C(C)C)C(=O)N(C)[C@@H](CC(C)C)C(=O)N[C@@H](C)C(=O)N[C@H](C)C(=O)N(C)[C@@H](CC(C)C)C(=O)N(C)[C@@H](CC(C)C)C(=O)N(C)[C@H](C(C)C)C(=O)N1C`, the activity change, negative = inhibition was -0.202% in experiment [4] and 12.6% in experiment [5].

As to `COc1ccccc1-c1onc(C)c1C(=O)NCCc1cccc(Cl)c1`, the activity change, negative = inhibition in experiment [4] was -7.9%; in experiment [1] it was -3.44%; in experiment [5], -3.51%; in experiment [2] it was -12.9%; in experiment [3] it was -4.36%.

For the compound `COc1ccc(-c2cc3c(cn2)CN(CCc2ccccc2)CCN3)cc1OC`, the activity change, negative = inhibition in experiment [4] is -71.9%; in experiment [1], -16.8%; in experiment [5] it was -92.6%; in experiment [2], -56.7%; in experiment [3], -65.8%.

`COc1ccccc1CNC(=O)C1c2c(n(C)c3ccccc23)SCC(=O)N1Cc1ccco1` (stereo not given): the activity change, negative = inhibition is 2.9% in experiment [4]; 1.52% in experiment [1]; -3.66% in experiment [5]; -7.46% in experiment [2]; 2.05% in experiment [3].

For `Cc1nc([C@@H]2CN(Cc3ccc(C(F)(F)F)cc3)C[C@H]2C(N)=O)n[nH]1`, the activity change, negative = inhibition is -4.12% in experiment [4]; -0.277% in experiment [1]; -1.93% in experiment [5]; -8.35% in experiment [2]; -4.69% in experiment [3].
